Measurements taken from PubChem BioAssay AID1963831 (Molecular Pharmacology Branch, DTP, NCI, 2024).
Not every entry of the source has a single result; some have several. The other results are left out here. An entry can have further records. Results that share an entry repeat one measurement (runs, samples, wells, individuals or studies). Marks such as (2×) count equal records among those shown.

System: 889142-216-R-J1-PDC complex spheroid viability
Assay: Anticancer human tumor 889142-216-R-J1-PDC patient-derived bladder carcinoma cell line growth inhibition [POLQ]
Settings: for viability, T/C: stronger effect = lower value
Procedure: Multicellular complex tumor spheroid response to Polymerase (POL) inhibitors (novobiocin, ART-558, RP6685) in combination with a variety of drugs and investigational agents in selected tumor cell lines
The POL inhibitors (novobiocin, ART-558, and RP6685) were evaluated both individually and in combination with standard of care and investigational anticancer small molecules within a complex spheroid model of solid tumors. . Complex spheroids include a stromal component modeled by human endothelial cells (HUVEC) and fibroblasts modeled by human mesenchymal stem cells (MSCs). The concentration ranges selected for each drug and investigational agent were based upon clinically achievable concentrations if the clinical Cmax of the agent was known.
Compounds. The drugs and investigational agents: novobiocin (NSC847541), ART-558 (NSC835418), RP-6685 (NSC848927), peposertib (NSC802822), ceralasertib (NSC780249), elimusertib (NSC800525), camonsertib (NSC841442), AZD-1390 (NSC803789), olaparib (NSC753686), talazoparib (NSC767125), rucaparib (NSC756644), sotorasib (NSC818433), MRTX-1133 (NSC836407), SN-38 (NSC673596), topotecan (NSC609699), epotoside (NSC141540), doxorubicin (NSC123127), gemcitabine (NSC613327), 5-fluorouracil (NSC19893), paclitaxel (NSC125973), vemurafenib (NSC761431), MSA-2 (NSC828583), SN-011 (NSC837082), adavosertib (NSC754352), prexasertib (NSC758257), carboplatin (NSC241240) and oxaliplatin (NSC266046), were obtained from the National Cancer Institute (NCI) Developmental Therapeutics Program Chemical Repository (21). The FDA-approved anticancer drug set is available from the Developmental Therapeutics Program at https://dtp.cancer.gov/organization/dscb/obtaining/. […] The stock solutions were prepared in dimethyl sulfoxide (DMSO, Sigma-Aldrich, St. Louis, MO, cat. D2650), except for the platinum compounds which were prepared in saline (Quality Biological, Gaithersburg, MD, cat. 114-055-101), at 800-fold the tested concentration and stored at -70 degrees C prior to their use. All drugs and investigational agents were tested over a range starting from a high concentration at or near the clinical Cmax and decreasing in half-log increments. If the clinical Cmax for an agent had not been determined, the highest concentration tested was 10 microM, except for SN-38, which was tested at a high concentration of 1 microM.
Cell Culture. All cells were maintained in an incubator at 37 degrees C and 5% CO2 with 95% humidity. The PDC lines were cultured according to standard operating procedures established by the NCI PDMR (https://pdmr.cancer.gov). Table 3 of the manuscript, lists the cell lines along with the number of the three cell types plated to form the mct-spheroids and media for tumor cell growth. After thawing, all PDC lines, except 997537-175-T-J1-PDC and 415267-285-R-J2-PDC, were cultured in Matrigel-coated flasks prepared with a working solution of 1X Ham's F-12 nutrient mix, without supplementation (Thermo Fisher Scientific, cat. 11765054), 100 U/mL penicillin-streptomycin (Thermo Fisher Scientific, cat. 15140122), and 2.5% Matrigel (Corning Inc., Corning, NY, cat. 354248) for the first three passages. The two PDC lines 997537-175-T-J1-PDC and 415267-285-R-J2-PDC were cultured on uncoated flasks. The 857933-349-R-J2-PDC line was cultured in 6C/Colon 1B media containing advanced DMEM/F-12 (Thermo Fisher Scientific, cat. 12634028), 10 mM HEPES (Thermo Fisher Scientific, cat. 15630080), 1X GlutaMAX supplement (Thermo Fisher Scientific, cat. 35050061), 0.1 mg/mL primocin (InvivoGen, San Diego, CA, cat. ant-pm-2), 10% defined fetal bovine serum, heat inactivated (HyClone Laboratories Inc., Logan, UT, cat. SH30070.03HI), 50% L-WRN conditioned media (ATCC, cat. CRL-3276), 1.25 mM N-Acetyl-L-cysteine (Sigma-Aldrich, cat. A9165), 10 mM nicotinamide (Sigma-Aldrich, cat. N0636), 1X B-27 supplement (Thermo Fisher Scientific, cat. 17504044), 1X N-2 supplement (Thermo Fisher Scientific, cat. […]
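Further: spheroids exposed to compounds for seven days.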
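Wherever viability, T/C is given: 100% = DMSO vehicle control viability.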

Row | IC50 (compound alone) | Compound | viability, T/C (compound alone 0.0316 µM) | viability, T/C (compound alone 0.1 µM) | viability, T/C (compound alone 0.316 µM) | viability, T/C (compound alone 1 µM) | viability, T/C (compound alone 10 µM) | viability, T/C (compound alone 3.16 µM)
1 | < 9.49 nM, 423 nM, > 3 µM | CC(=O)O[C@H]1C(=O)[C@@]2(C)[C@H]([C@H](OC(=O)c3ccccc3)[C@]3(O)C[C@H](OC(=O)[C@H](O)[C@@H](NC(=O)c4ccccc4)c4ccccc4)C(C)=C1C3(C)C)[C@]1(OC(C)=O)CO[C@@H]1C[C@@H]2O |  |  |  |  |  | 
2 |  | Cc1cccc(N(C)C(=O)C2C(O)CCN2c2nc(C)cc(C(F)(F)F)c2C#N)c1 (centres undefined) | 102 (2×), 119, 95.8, 94.3 (2×), 103, 93.9, 89, 76.9, 84.6, 90.5, 90.3% | 89.4, 97.2, 103, 101, 89.8, 111, 97.3, 93.5, 97.4, 89.1, 123, 102, 88.9% | 111, 110, 83.7, 107, 100, 94, 105, 88.5, 101, 91.8, 74, 88.9, 83.5% | 87.4, 102, 88.9, 105, 80.1, 94.8 (2×), 93, 90.7, 72.7, 104, 93.5, 77.7% | 91.9, 89.3, 87.2, 77.7, 75, 81.2, 84.3, 79.2, 88.3, 83.2, 80.1, 98.7, 103% | 
3 |  | Nc1ccc(C#CCN(C(=O)Cc2ncc(C(F)(F)F)cc2C(F)(F)F)c2ccc(F)cc2)nn1 | 86.2, 85.6, 103, 96.9, 88.1, 78.5, 98.5, 89.4, 86.8, 92.1, 105, 93.2% |  | 103, 91.5, 94.2 (2×), 97.5, 120, 104 (3×), 111, 79.6, 92, 101% | 107 (2×), 89.9, 101, 114, 94.7, 95.4, 108, 98.3, 115, 106, 91.6, 90.5% |  | 81.6, 91.2, 134, 119 (2×), 105 (2×), 118, 97, 81.7, 101, 99.8, 111%
4 |  | COC1C(OC(N)=O)C(O)C(Oc2ccc3c(O)c(NC(=O)c4ccc(O)c(CC=C(C)C)c4)c(=O)oc3c2C)OC1(C)C (centres undefined) |  | 113, 105, 108, 110 (2×), 112, 92.5, 103, 90.3, 101, 115, 87% |  | 97.1, 110, 92.2, 102, 111, 104, 101 (2×), 93.6, 85.7, 90.9, 88.4% | 80.8, 109, 98.7, 84.1, 88.5, 97, 98.2, 96.8, 108, 97.8, 105, 95.4% | 88.9, 97.6, 107 (2×), 98.9, 92.9, 110, 108, 93.2, 94.2, 84, 94.8%
